# Assay results from the supplement of paper PMC8728848.
# Some of the results follow.
# Experiments:
# Test in all cases: glycan array binding signal (z-score within array); higher = stronger binding
# Conditions in all cases: glycan notation: IUPAC condensed, linker removed
# [1] = target: GlcNAc(b1-3)Gal(b1-3)GalNAc
# Outline: (§1)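 The binding signal is a Z-score computed within each array and averaged over linkers. Arrays of the same protein sequence at different concentrations or buffers were also averaged together. Data originate from 3228 arrays in the Consortium for Functional Glycomics database, kept only where the protein sequence was available.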
# [2] = target: GlcNAc(b1-3)Gal(b1-4)Glc
# Outline: as §1
# [3] = target: GlcNAc(b1-3)Gal(b1-4)GlcNAc
# Outline: as §1
# [4] = target: GlcNAc(b1-3)Gal(b1-4)GlcNAc(b1-2)Man(a1-3)[GlcNAc(b1-3)Gal(b1-4)GlcNAc(b1-2)Man(a1-6)]Man(b1-4)GlcNAc(b1-4)GlcNAc
# Outline: as §1
# [5] = target: GlcNAc(b1-3)Gal(b1-4)GlcNAc(b1-2)Man(a1-3)[GlcNAc(b1-3)Gal(b1-4)GlcNAc(b1-2)Man(a1-6)]Man(b1-4)GlcNAc(b1-4)[Fuc(a1-6)]GlcNAc
# Outline: as §1
# [6] = target: GlcNAc(b1-3)Gal(b1-4)GlcNAc(b1-2)[GlcNAc(b1-3)Gal(b1-4)GlcNAc(b1-6)]Man(a1-6)[GlcNAc(b1-3)Gal(b1-4)GlcNAc(b1-2)Man(a1-3)]Man(b1-4)GlcNAc(b1-4)GlcNAc
# Outline: as §1
# [7] = target: GlcNAc(b1-3)Gal(b1-4)GlcNAc(b1-3)Gal(b1-4)GlcNAc
# Outline: as §1
# [8] = target: GlcNAc(b1-3)Gal(b1-4)GlcNAc(b1-3)Gal(b1-4)GlcNAc(b1-2)Man(a1-3)[GlcNAc(b1-3)Gal(b1-4)GlcNAc(b1-3)Gal(b1-4)GlcNAc(b1-2)Man(a1-6)]Man(b1-4)GlcNAc(b1-4)GlcNAc
# Outline: as §1
# [9] = target: GlcNAc(b1-3)Gal(b1-4)GlcNAc(b1-3)Gal(b1-4)GlcNAc(b1-2)Man(a1-3)[GlcNAc(b1-3)Gal(b1-4)GlcNAc(b1-3)Gal(b1-4)GlcNAc(b1-2)Man(a1-6)]Man(b1-4)GlcNAc(b1-4)[Fuc(a1-6)]GlcNAc
# Outline: as §1
# [10] = target: GlcNAc(b1-3)Gal(b1-4)GlcNAc(b1-3)Gal(b1-4)GlcNAc(b1-2)[GlcNAc(b1-3)Gal(b1-4)GlcNAc(b1-3)Gal(b1-4)GlcNAc(b1-6)]Man(a1-6)[GlcNAc(b1-3)Gal(b1-4)GlcNAc(b1-3)Gal(b1-4)GlcNAc(b1-2)Man(a1-3)]Man(b1-4)GlcNAc(b1-4)[Fuc(a1-6)]GlcNAc
# Outline: as §1
# [11] = target: GlcNAc(b1-3)Gal(b1-4)GlcNAc(b1-3)Gal(b1-4)GlcNAc(b1-3)Gal(b1-4)GlcNAc(b1-2)Man(a1-3)[GlcNAc(b1-3)Gal(b1-4)GlcNAc(b1-3)Gal(b1-4)GlcNAc(b1-3)Gal(b1-4)GlcNAc(b1-2)Man(a1-6)]Man(b1-4)GlcNAc(b1-4)GlcNAc
# Outline: as §1
# [12] = target: GlcNAc(b1-3)Gal(b1-4)GlcNAc(b1-3)Gal(b1-4)GlcNAc(b1-3)Gal(b1-4)GlcNAc(b1-2)Man(a1-3)[GlcNAc(b1-3)Gal(b1-4)GlcNAc(b1-3)Gal(b1-4)GlcNAc(b1-3)Gal(b1-4)GlcNAc(b1-2)Man(a1-6)]Man(b1-4)GlcNAc(b1-4)[Fuc(a1-6)]GlcNAc
# Outline: as §1
# [13] = target: GlcNAc(b1-3)Gal(b1-4)GlcNAc(b1-3)Gal(b1-4)GlcNAc(b1-3)Gal(b1-4)GlcNAc(b1-2)[GlcNAc(b1-3)Gal(b1-4)GlcNAc(b1-3)Gal(b1-4)GlcNAc(b1-3)Gal(b1-4)GlcNAc(b1-6)]Man(a1-6)[GlcNAc(b1-3)Gal(b1-4)GlcNAc(b1-3)Gal(b1-4)GlcNAc(b1-3)Gal(b1-4)GlcNAc(b1-2)Man(a1-3)]Man(b1-4)GlcNAc(b1-4)[Fuc(a1-6)]GlcNAc
# Outline: as §1
# [14] = target: GlcNAc(b1-3)Gal(b1-4)GlcNAc(b1-3)Gal(b1-4)GlcNAc(b1-3)Gal(b1-4)GlcNAc(b1-3)Gal(b1-4)GlcNAc(b1-2)Man(a1-3)[GlcNAc(b1-3)Gal(b1-4)GlcNAc(b1-3)Gal(b1-4)GlcNAc(b1-3)Gal(b1-4)GlcNAc(b1-3)Gal(b1-4)GlcNAc(b1-2)Man(a1-6)]Man(b1-4)GlcNAc(b1-4)GlcNAc
# Outline: as §1
# [15] = target: GlcNAc(b1-3)Gal(b1-4)GlcNAc(b1-3)Gal(b1-4)GlcNAc(b1-3)Gal(b1-4)GlcNAc(b1-3)Gal(b1-4)GlcNAc(b1-2)Man(a1-3)[GlcNAc(b1-3)Gal(b1-4)GlcNAc(b1-3)Gal(b1-4)GlcNAc(b1-3)Gal(b1-4)GlcNAc(b1-3)Gal(b1-4)GlcNAc(b1-2)Man(a1-6)]Man(b1-4)GlcNAc(b1-4)[Fuc(a1-6)]GlcNAc
# Outline: as §1
# [16] = target: GlcNAc(b1-3)Gal(b1-4)GlcNAc(b1-3)Gal(b1-4)GlcNAc(b1-3)Gal(b1-4)GlcNAc(b1-3)Gal(b1-4)GlcNAc(b1-2)[GlcNAc(b1-3)Gal(b1-4)GlcNAc(b1-3)Gal(b1-4)GlcNAc(b1-3)Gal(b1-4)GlcNAc(b1-3)Gal(b1-4)GlcNAc(b1-6)]Man(a1-6)[GlcNAc(b1-3)Gal(b1-4)GlcNAc(b1-3)Gal(b1-4)GlcNAc(b1-3)Gal(b1-4)GlcNAc(b1-3)Gal(b1-4)GlcNAc(b1-2)Man(a1-3)]Man(b1-4)GlcNAc(b1-4)[Fuc(a1-6)]GlcNAc
# Outline: as §1
# [17] = target: GlcNAc(b1-3)Gal(b1-4)GlcNAc(b1-3)Gal(b1-4)GlcNAc(b1-3)GalNAc
# Outline: as §1
# [18] = target: GlcNAc(b1-3)Gal(b1-4)GlcNAc(b1-3)GalNAc
# Outline: as §1
# [19] = target: GlcNAc(b1-3)Gal(b1-4)GlcNAc(b1-3)[GlcNAc(b1-3)Gal(b1-4)GlcNAc(b1-3)]GalNAc
# Outline: as §1
# [20] = target: GlcNAc(b1-3)Gal(b1-4)GlcNAc(b1-6)[Gal(b1-3)]GalNAc
# Outline: as §1
# [21] = target: GlcNAc(b1-3)Gal(b1-4)GlcNAc(b1-6)[GlcNAc(b1-3)Gal(b1-3)]GalNAc
# Outline: as §1
# [22] = target: GlcNAc(b1-3)Gal(b1-4)GlcNAc(b1-6)[GlcNAc(b1-3)]Gal(b1-4)GlcNAc
# Outline: as §1
binder,measurement,setting,value
"SSR1 (Sclerotium rolfsii), A0A0M3KL30 (protein) TYKITVRVYQTNPDAFFHPVEKTVWKYANGGTWTITDDQHVLTMGGSGTSGTLRFHADNGESFTATFGVHNYKRWCDIVTNLAADETGMVINQQYYSQKNREEARERQLSNYQVKNAKGRNFQIVYTEAEGNDLHANLIIG",glycan array binding signal (z-score),[1],1.72
same,glycan array binding signal (z-score),[2],0.335
same,glycan array binding signal (z-score),[3],1.27
same,glycan array binding signal (z-score),[4],1.04
same,glycan array binding signal (z-score),[5],1.17
same,glycan array binding signal (z-score),[6],1.32
same,glycan array binding signal (z-score),[7],1.13
same,glycan array binding signal (z-score),[8],0.723
same,glycan array binding signal (z-score),[9],1.07
same,glycan array binding signal (z-score),[10],0.914
same,glycan array binding signal (z-score),[11],0.934
same,glycan array binding signal (z-score),[12],0.966
same,glycan array binding signal (z-score),[13],1.16
same,glycan array binding signal (z-score),[14],1.22
same,glycan array binding signal (z-score),[15],1.37
same,glycan array binding signal (z-score),[16],1.32
same,glycan array binding signal (z-score),[17],0.907
same,glycan array binding signal (z-score),[18],0.711
same,glycan array binding signal (z-score),[19],0.961
same,glycan array binding signal (z-score),[20],0.938
same,glycan array binding signal (z-score),[21],0.871
same,glycan array binding signal (z-score),[22],0.953
